# Test results taken from PubChem BioAssay AID1362 (SRMLSC, 2008).
# The other results are listed elsewhere or left out. Shown are side measurements of this screen, not its main read-out; they come without a call. The list favours compounds with an active or inconclusive main result.
# Assay: growth inhibition of WT strain, primary screen, mitochondrial fusion inhibitor project, WT and mutant strains, chemical genetic (AID 1362); further: tested in S. cerevisiae
# Details: mitochondrial fusion phenotypic screen, at 10 µM
row,SMILES,inhibition
1,COc1ccccc1OCC(=O)N(Cc1nc(-c2ccccc2)no1)C1CCCCC1,18.5%
2,Cc1ccc(OCCCCn2cnc3ccccc32)cc1,54.6%
3,c1ccc(-c2nc3ccccn3c2NC2CCCC2)nc1,51%
4,Cc1nc2ccccc2c(=O)n1NC(=O)c1ccccc1Cl,35%
5,NNC(=O)c1cccc(COc2cccc(Br)c2)c1,64.6%
6,CCCn1c(CN(Cc2ccccc2)Cc2ccccc2)nc2c1c(=O)n(C)c(=O)n2C,20.7%
7,O=C(Nc1nc(-c2cccs2)cs1)c1ccc(Cl)s1,76%
8,CN(C)c1ncc(S(=O)(=O)c2ccc(Cl)cc2)c(-c2ccc(Cl)cc2Cl)n1,3.98%
9,CCOC(=O)c1cnc2ccc(OCC)cc2c1NCc1ccccc1,84.3%
10,Cc1ccc(C)c(Cn2cnc3c(cnn3C(C)(C)C)c2=O)c1,51.3%
11,CC(C)(C)C1CCc2[nH]c3ccccc3c(=O)c2C1 (centres undefined),80.9%
12,Cc1ccc2nc(-c3ccccn3)c(Nc3ccccc3C)n2c1,70.3%
13,CC(C)c1ccc2oc(-c3cc(N)ccc3O)nc2c1,64.8%
14,Cc1c(C(=O)c2ccc(Cl)c(Cl)c2)cnc2cc3c(cc12)OCO3,21.9%
15,CN(C)/C=C(\C=N\OCc1ccc(Cl)cc1Cl)C(=O)Nc1ccc(Cl)c(Cl)c1,55.1%
16,CCc1ccc(N(CC)C(=O)c2ccc3c(Cl)c4c(nc3c2)CCC4)cc1,5.37%
17,CN1CCN(CC(O)COc2ccc(C34CC5CC(CC(C5)C3)C4)cc2)CC1 (centres undefined),92.9%
18,Cc1ccc2nc(N(CCCN(C)C)C(=O)COc3ccc(Cl)cc3)sc2c1,89.1%
19,Oc1ccccc1CN(Cc1ccco1)CC(O)COCc1ccc(Cl)cc1 (centres undefined),17.8%
20,O=C(OC(C(=O)Nc1cccc(C(F)(F)F)c1)c1ccccc1)C1CCCCC1 (centres undefined),10.9%
21,COc1ccc(C(C)=O)cc1CSc1nc2ccccc2c(=O)n1-c1ccccc1C,38.9%
22,CCc1ccc2c(c1)C(c1ccc(N3CCOCC3)cc1)=NNC(c1ccncc1)=N2,40.7%
23,Cc1cccn2cc(COc3ccc(-c4ccccc4)cc3)nc12,74.9%
24,O=C(c1n[nH]c2ccccc12)N1CCN(S(=O)(=O)c2ccc3ccccc3c2)CC1,29.2%
25,Cc1ccccc1N1CCN(C2=NC(=O)/C(=C\c3cccs3)S2)CC1,27.3%
26,CCCCCCCc1ccc(-c2ccc(O)cc2)nc1,37.3%
27,CNC(=S)N1CCN(c2ccc([N+](=O)[O-])cc2)CC1,-8.55%

row,SMILES,inhibition
1,Cc1ccc(Cl)cc1NC1=C/C(=N\S(=O)(=O)c2cccs2)c2ccccc2C1=O,65.8%
2,O=C(CSc1nnc2scc(-c3ccccc3)n12)Nc1ccc2c(c1)OCCO2,14.2%
3,Cc1ccc(C)c(N2CCN(C(=S)Nc3ccc4nc(N5CCN(C)CC5)cc(C)c4c3)CC2)c1,41.5%
4,O=C1c2ccccc2C(=O)N1CCN1CCCCC1,-4.37%
5,CCC(C(=O)OCC(=O)Nc1ccc(SC(F)F)cc1)c1ccccc1 (centres undefined),10.3%
6,Cc1c(C(=O)N2CCN(c3ccc(C(F)(F)F)cn3)CC2)oc2ccccc12,47.4%
7,CC1CC(C)CN(c2ncnc3c2cnn3Cc2ccc(Cl)cc2)C1 (centres undefined),18.6%
8,C=CCN(CC=C)C(=S)NC(=O)Cc1cccc2ccccc12,58.7%
9,O=c1c2c3c(sc2nc2n1CCC2)CCC3,-5.45%
10,CCC(/C=C1\Sc2ccc(OC)cc2N1CC)=C\c1sc2ccc(OC)cc2[n+]1CCCS(=O)(=O)[O-],53.2%
11,O=c1cc(C(F)(F)F)[nH]c2c(C(F)(F)F)cccc12,71.2%
12,S=C(NCc1ccco1)Nc1cc(-c2ccccc2)[nH]n1,21.9%
13,CCCCCCP(=O)(O)c1ccccc1,2.28%
14,Cc1cccc(-n2c(-c3csc4ccccc34)n[nH]c2=S)c1,7.12%
15,COc1cc2c(cc1NC(=S)Nc1cccc(C(F)(F)F)c1)oc1ccccc12,35.5%
16,Cc1ccc2nc(SC(C(=O)Nc3ccc(F)cc3)c3ccccc3)[nH]c2c1 (centres undefined),2%
17,O=C(Nc1nnc(-c2ccc(F)cc2)o1)c1cccc([N+](=O)[O-])c1,74.9%
18,CN1CCN(CC(O)(c2ccc(Cl)cc2)c2ccc(Cl)cc2)CC1,65.7%
19,CC1(C)Cc2ccccc2C(/C(=N\Nc2cccc(Cl)c2)C(N)=O)=N1,27.2%
20,Cc1ccc(C)c(N2CCN(C(=O)C(Cc3ccccc3)n3cccc3)CC2)c1 (centres undefined),31.4%
21,CC1(CC(=O)N/N=C/c2ccc(OCc3ccc(Cl)cc3Cl)cc2)OCCCO1,7.25%
22,CC1=NOC(=O)/C1=C\c1ccc(-c2ccc(Br)cc2)o1,75%
23,COc1cc(/C=C2\SC(=S)N(Nc3ccccc3)C2=O)ccc1O,73.5%
24,C/C(N)=C(/C#N)C(=O)COC(=O)c1cc(S(=O)(=O)N2CCCCC2)ccc1C,-3.69%
25,COc1ccc(C(C)(C)C)cc1NC(=O)Nc1ccc2c(c1)OCO2,15.4%
26,O=c1ccccn1Cc1c(Cl)cccc1Cl,-1.19%
27,COc1ccc(C2N(c3ccc(Cl)cc3)N=C(C(C)=O)N(C)N2C(C)=O)cc1 (centres undefined),1.32%
